Measured values as given in PubChem BioAssay AID686979 (National Center for Advancing Translational Sciences (NCATS), 2013).
“And” between values parts separate entries of the source, which are not always exact repeats. Equal values may be shown once. The whole screen tested about 420,000 compounds, of which about 50,000 (12%) were called active. Inconclusive means that the source gave no clear call. Such entries were picked first, then a sample of the others. The call rests on the fitted dose curve; in most records, active means well fitted inhibition curve with a large enough effect; inconclusive means small, poorly fitted or top-dose-only effect; inactive means flat fitted curve, though single readings scatter. Potencies of inconclusive entries are doubtful fits and often do not repeat.

Experiment: qHTS for Inhibitors of human tyrosyl-DNA phosphodiesterase 1 (TDP1): qHTS in cells in presence of CPT; further: nearly all actives have a fitted effect of over 55% in size
Conditions: chicken DT40 Tdp1-/-;hTDP1 cells + 20 nM CPT, ATP luminescence, 48 h; series mostly up to 46.2 µM
Outline: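 Chicken DT40 Tdp1-/- cells stably complemented with human TDP1 were seeded at 400 cells/well in medium containing 20 nM camptothecin, exposed to pin-transferred compounds, and grown at 37 °C for at least 48 hr. Viability was read as ATP luminescence.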
Potency means the concentration at half of the fitted maximal effect; tags describe the fitted curve by direction and shape.

Structure (SMILES) | Potency
NC1=NCc2ccccc21 | inconclusive: 29.1 µM [inhibitor, single point]
CCCCCCCCC(c1nc2ccccc2[nH]1)N1CCN=C(c2ccccc2)C1=O (centres undefined) | inconclusive: 29.1 µM [inhibitor, single point]
CCNC(=O)C1(C)CCCN(C(=O)c2cc3ccccc3s2)C1 (centres undefined) | inactive
COc1ccc(-c2nc(-c3ccccc3)c(-c3cccs3)[nH]2)cc1OC | active: 18.4 µM
CC(=O)OC1CCC2(C)C(COc3ccc4ccc(=O)oc4c3)C(C)(O)CCC2C1(C)C (centres undefined) | inconclusive: 14.6 µM [inhibitor, partial curve]
N#Cc1nc(-c2cccs2)oc1N1CCN(Cc2ccccc2)CC1 | inconclusive: 10.3 µM [inhibitor, partial curve]
N#CCCN1CCN(C(=S)c2ccc(-c3ccc(Cl)c(Cl)c3)o2)CC1 | active: 25.9 µM
CN(Cc1ccco1)C(=O)c1cc2c(s1)-c1ccc(Cl)cc1S(=O)(=O)C2 | inconclusive: 23.1 µM [inhibitor, single point]
O=c1c2ccccc2oc2ccc(NCCCn3ccnc3)cc12 | inconclusive: 29.1 µM [inhibitor, single point]
O=C(NCCNS(=O)(=O)c1ccc(C(F)(F)F)cc1)N1CCOCC1 | inconclusive: 29.1 µM [inhibitor, partial curve, poor fit]
CCc1sc(C(=O)Nc2cccc(-n3cnnn3)c2)cc1C | inconclusive: 18.4 µM [inhibitor, single point]
COC(=O)[C@]12C(=O)C(C)=C(O)[C@@]1(C)C(C)=CC1[C@@]34CC[C@@H](OC(C)=O)C(C)(C)C3C(C[C@]12C)OC4=O (some centres undefined) | inactive
O=C1OC(CN2CCOCC2)CN1N=Cc1ccc([N+](=O)[O-])o1 (centres undefined) | active: 14.6 µM
CCOc1ccc(CCNC(=O)COC(=O)Cc2ccc(OC)c(OC)c2)cc1OCC | inactive
CC1CN(C(=O)c2ccc(CNS(=O)(=O)c3cccc(C(F)(F)F)c3)cc2)CC(C)O1 (centres undefined) | inconclusive: 35.5 µM [inhibitor, single point]
CCOc1ccc(C2C=C(c3ccc(F)cc3)Nc3ncnn32)cc1 (centres undefined) | inactive
N#CC(C#N)=C1C=CC=CN1/C(=C\c1ccco1)C(=O)c1ccc(Cl)cc1 | active: 0.58 µM
CCc1ccc(Nc2nnc(SCC(=O)Nc3cccnc3Cl)s2)cc1 | inactive
COc1ccc(CN2C(=O)C(C)Nc3ncnc(N4CCN(c5ccccn5)CC4)c32)cc1 (centres undefined) | inconclusive: 29.1 µM [inhibitor, single point]
Cc1ccc2nc(Cl)c(C3CC(c4cccs4)=NN3C(=O)CCC(=O)O)cc2c1 (centres undefined) | inactive
Cc1cccc(NC(=O)c2ccc(OCC(=O)NCc3ccccc3)cc2)c1C | inconclusive: 32.6 µM [inhibitor, single point]
CC(Oc1ccc(Br)cc1)C(=O)Nc1ccc(N2CCOCC2)cc1N1CCOCC1 (centres undefined) | inconclusive: 29.1 µM [inhibitor, single point]

Structure (SMILES) | Potency
CCCN1CCN(CCCNC(=O)c2cc3c(=O)[nH]c4ccccc4c3s2)CC1 | inactive and inconclusive: 18.4 µM [inhibitor, single point]
CC1CC[C@@]2(OC1)O[C@H]1CC3[C@@H]4C[C@@H](O)[C@@]5(O)C[C@@H](O)[C@H](O)C[C@]5(C)[C@H]4CC[C@]3(C)[C@H]1[C@@H]2C (some centres undefined) | inactive
O=[N+]([O-])c1cccc(-c2nc3ccccc3s/c2=N/O)c1 | inactive
CC(C)c1ccc(NC2CCCN(C(=O)c3n[nH]c4c3CCC4)C2)cc1 (centres undefined) | active: 18.4 µM
Cc1cccc(OCC(=O)NNC(=O)Nc2cccc(Cl)c2)c1C | inactive
Cc1cc(C)cc(OCC(=O)N(C)CC(=O)Nc2ccc(Cl)c(C(F)(F)F)c2)c1 | inconclusive: 18.4 µM [inhibitor, single point]
CCC(CC)C(=O)c1c[nH]c(C(=O)N2CCN(c3ccccc3F)CC2)c1 | inactive
COc1ccc(C(C)N(C)Cc2nc(N3CCN(C(=O)c4ccco4)CC3)c3ccccc3n2)cc1 (centres undefined) | inconclusive: 0.0366 µM [inhibitor, full curve, poor fit]
Clc1ccc(Oc2nc(N3CCOCC3)nc(N3CCOCC3)n2)cc1 | inconclusive: 16.4 µM [inhibitor, single point]
O=S(=O)(c1ccc(Br)cc1)c1cnc2ccccc2n1 | active: 25.9 µM
CCCNC(=O)C1(C)CCCN(Cc2ccc(-c3ccccc3)cc2)C1 (centres undefined) | active: 6.51 µM
CC1CCC(=O)N(CCOc2ccccc2)CC1 (centres undefined) | inconclusive: 29.1 µM [inhibitor, single point]
O=C(Nc1ccccc1)OC[C@@H]1C=CS(=O)(=O)N1Cc1ccc(Br)cc1 | inconclusive: 29.1 µM [inhibitor, single point]
CC(C)COc1cccc(C(=O)Nc2cc(S(=O)(=O)N3CCOCC3)ccc2N2CCCC2)c1 | inconclusive: 25.9 µM [inhibitor, single point]
O=C(NCc1ccco1)c1ccccc1-c1ccc(C(F)(F)F)cc1 | inactive
CCC1=NN2C(=N)/C(=C/c3ccc(OS(=O)(=O)c4ccc(C)cc4)c(OC)c3)C(=O)N=C2S1 | inconclusive: 29.1 µM [inhibitor, single point]
CC(C)(C)OC(=O)N1CCC(CC2CC(c3cccc(Br)c3)=NO2)(C(=O)NCC2CCCCC2)CC1 (centres undefined) | inconclusive: 20.6 µM [inhibitor, single point]
FC(F)(F)c1ccccc1NC(=S)Nn1cnnc1 | inconclusive: 29.1 µM [inhibitor, single point]
COc1ccc(-c2cc(C(F)(F)F)nc(SCC(=O)NCc3ccco3)n2)cc1OC | inconclusive: 20.6 µM [inhibitor, single point]
Cc1ccccc1Nc1nc(CSc2nnnn2-c2ccccc2)cs1 | inconclusive: 29.1 µM [inhibitor, single point]
COc1cc(/C=N/O)cc(Br)c1OCc1ccc(Cl)cc1 | inconclusive: 23.1 µM [inhibitor, single point]
COc1cc(OC)c(/C=C/c2ccccn2)c(OC)c1 | active: 3.16 µM
